# Reference: the supplement of paper PMC8728848
# This is one part of the list.
# B1: LICBM33A (Lactococcus lactis), Q9CE94 (protein)
# chain: MKKLLTGLLVAAGLLSVSLLIKTDTVSAHGYVQSPPARGYQGQLDSQSLGWTAAFNIYGNVISNPQSLEAPKGFPECGPADGRIASANGGLGQIGDFVLDNQTSSRWKKTSISTGSNIFTWKYTAPHKTTKWHYYMTKTGWDQNAPLKHSELELIGTINHDGSPATNNLSHTINIPTDRSGYHIVLAVWDVADTSNAFYNVIDINVNNKNASSQVFGPFL
# Experiments:
# Assay in all cases: glycan array binding signal (z-score within array); higher = stronger binding
# Details in all cases: glycan notation: IUPAC condensed, linker removed
# [1] = target: Gal3S(b1-3)[Fuc(a1-4)]GlcNAc
# Outline: (§1)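 The Consortium for Functional Glycomics database supplied 3228 glycan arrays, of which those lacking an available protein sequence were dropped. The binding signal, a within-array Z-score, was averaged across arrays of the same protein sequence and across linkers. Negative scores can be read as non-binding.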
# Gal3S(b1-4)Glc = target: Gal3S(b1-4)Glc
# Outline: as §1
# Gal3S(b1-4)Glc6S = target: Gal3S(b1-4)Glc6S
# Outline: as §1
# Gal3S(b1-4)GlcNAc = target: Gal3S(b1-4)GlcNAc
# Outline: as §1
# [2] = target: Gal3S(b1-4)[Fuc(a1-3)]Glc6S
# Outline: as §1
# [3] = target: Gal3S(b1-4)[Fuc(a1-3)]GlcNAc
# Outline: as §1
# [4] = target: Gal3S(b1-4)[Fuc(a1-3)]GlcNAc6S
# Outline: as §1
# Gal3S4S(b1-4)GlcNAc = target: Gal3S4S(b1-4)GlcNAc
# Outline: as §1
# Gal3S6S(b1-4)GlcNAc = target: Gal3S6S(b1-4)GlcNAc
# Outline: as §1
# Gal3S6S(b1-4)GlcNAc6S = target: Gal3S6S(b1-4)GlcNAc6S
# Outline: as §1
# Gal4S(b1-4)GlcNAc = target: Gal4S(b1-4)GlcNAc
# Outline: as §1
# Gal4S6S(b1-4)GlcNAc = target: Gal4S6S(b1-4)GlcNAc
# Outline: as §1
# Gal6P(b1-4)GlcNAc = target: Gal6P(b1-4)GlcNAc
# Outline: as §1
# Gal6S(b1-3)GlcNAc = target: Gal6S(b1-3)GlcNAc
# Outline: as §1
# Gal6S(b1-3)GlcNAc6S = target: Gal6S(b1-3)GlcNAc6S
# Outline: as §1
# Gal6S(b1-4)Glc = target: Gal6S(b1-4)Glc
# Outline: as §1
# Gal6S(b1-4)Glc6S = target: Gal6S(b1-4)Glc6S
# Outline: as §1
# Gal6S(b1-4)GlcNAc = target: Gal6S(b1-4)GlcNAc
# Outline: as §1
# Gal6S(b1-4)GlcNAc6S = target: Gal6S(b1-4)GlcNAc6S
# Outline: as §1
# GalNAc(a1-3)Gal = target: GalNAc(a1-3)Gal
# Outline: as §1
# GalNAc(a1-3)GalNAc = target: GalNAc(a1-3)GalNAc
# Outline: as §1
# [5] = target: GalNAc(a1-3)GalNAc(b1-3)Gal(a1-4)Gal(b1-4)Glc
# Outline: as §1
# [6] = target: GalNAc(a1-3)GalNAc(b1-3)Gal(a1-4)Gal(b1-4)GlcNAc
# Outline: as §1
# GalNAc(b1-3)Gal = target: GalNAc(b1-3)Gal
# Outline: as §1
# [7] = target: GalNAc(b1-3)Gal(a1-4)Gal(b1-4)GlcNAc
# Outline: as §1
# [8] = target: GalNAc(b1-3)Gal(a1-4)Gal(b1-4)GlcNAc(b1-3)Gal(b1-4)Glc
# Outline: as §1
# [9] = target: GalNAc(b1-3)Gal(a1-6)Gal(b1-4)Glc
# Outline: as §1
# GalNAc(b1-3)GalNAc = target: GalNAc(b1-3)GalNAc
# Outline: as §1
# GalNAc(b1-3)GlcNAc = target: GalNAc(b1-3)GlcNAc
# Outline: as §1
# GalNAc(b1-4)Gal(b1-4)Glc = target: GalNAc(b1-4)Gal(b1-4)Glc
# Outline: as §1
# GalNAc(b1-4)GlcNAc = target: GalNAc(b1-4)GlcNAc
# Outline: as §1
# [10] = target: GalNAc(b1-4)GlcNAc(b1-2)Man
# Outline: as §1
# [11] = target: GalNAc(b1-4)GlcNAc(b1-2)Man(a1-3)[GalNAc(b1-4)GlcNAc(b1-2)Man(a1-6)]Man(b1-4)GlcNAc(b1-4)GlcNAc
# Outline: as §1
# [12] = target: GalNAc(b1-4)GlcNAc(b1-3)GalNAc(b1-4)GlcNAc
# Outline: as §1
# GalNAc(b1-4)GlcNAc6S = target: GalNAc(b1-4)GlcNAc6S
# Outline: as §1
# GalNAc(b1-6)GalNAc = target: GalNAc(b1-6)GalNAc
# Outline: as §1
# GalNAc3S(b1-4)GlcNAc = target: GalNAc3S(b1-4)GlcNAc
# Outline: as §1
# GalNAc3S(b1-4)GlcNAc3S = target: GalNAc3S(b1-4)GlcNAc3S
# Outline: as §1
# [13] = target: GalNAc3S(b1-4)[Fuc(a1-3)]GlcNAc
# Outline: as §1
# GalNAc4S6S(b1-4)GlcNAc = target: GalNAc4S6S(b1-4)GlcNAc
# Outline: as §1
# GalNAc6S(b1-4)GlcNAc = target: GalNAc6S(b1-4)GlcNAc
# Outline: as §1
# Glc(a1-4)Glc = target: Glc(a1-4)Glc
# Outline: as §1
# [14] = target: Glc(a1-4)Glc(a1-4)Glc(a1-4)Glc
# Outline: as §1
# Glc(a1-6)Glc(a1-6)Glc = target: Glc(a1-6)Glc(a1-6)Glc
# Outline: as §1
# [15] = target: Glc(a1-6)Glc(a1-6)Glc(a1-6)Glc
# Outline: as §1
binder,measurement,setting,value
B1,glycan array binding signal (z-score),[1],1.94
same,glycan array binding signal (z-score),Gal3S(b1-4)Glc,-0.272
same,glycan array binding signal (z-score),Gal3S(b1-4)Glc6S,0.122
same,glycan array binding signal (z-score),Gal3S(b1-4)GlcNAc,0.583
same,glycan array binding signal (z-score),[2],-0.717
same,glycan array binding signal (z-score),[3],-0.127
same,glycan array binding signal (z-score),[4],1.57
same,glycan array binding signal (z-score),Gal3S4S(b1-4)GlcNAc,-0.485
same,glycan array binding signal (z-score),Gal3S6S(b1-4)GlcNAc,1.24
same,glycan array binding signal (z-score),Gal3S6S(b1-4)GlcNAc6S,-0.382
same,glycan array binding signal (z-score),Gal4S(b1-4)GlcNAc,-0.496
same,glycan array binding signal (z-score),Gal4S6S(b1-4)GlcNAc,0.179
same,glycan array binding signal (z-score),Gal6P(b1-4)GlcNAc,-0.468
same,glycan array binding signal (z-score),Gal6S(b1-3)GlcNAc,-0.066
same,glycan array binding signal (z-score),Gal6S(b1-3)GlcNAc6S,-1.45
same,glycan array binding signal (z-score),Gal6S(b1-4)Glc,-1.14
same,glycan array binding signal (z-score),Gal6S(b1-4)Glc6S,-1.04
same,glycan array binding signal (z-score),Gal6S(b1-4)GlcNAc,-0.46
same,glycan array binding signal (z-score),Gal6S(b1-4)GlcNAc6S,0.359
same,glycan array binding signal (z-score),GalNAc(a1-3)Gal,-0.554
same,glycan array binding signal (z-score),GalNAc(a1-3)GalNAc,-0.223
same,glycan array binding signal (z-score),[5],-0.96
same,glycan array binding signal (z-score),[6],-0.197
same,glycan array binding signal (z-score),GalNAc(b1-3)Gal,-0.192
same,glycan array binding signal (z-score),[7],-0.027
same,glycan array binding signal (z-score),[8],1.6
same,glycan array binding signal (z-score),[9],0.079
same,glycan array binding signal (z-score),GalNAc(b1-3)GalNAc,-0.339
same,glycan array binding signal (z-score),GalNAc(b1-3)GlcNAc,-0.274
same,glycan array binding signal (z-score),GalNAc(b1-4)Gal(b1-4)Glc,0.615
same,glycan array binding signal (z-score),GalNAc(b1-4)GlcNAc,-0.066
same,glycan array binding signal (z-score),[10],0.642
same,glycan array binding signal (z-score),[11],-0.578
same,glycan array binding signal (z-score),[12],-0.387
same,glycan array binding signal (z-score),GalNAc(b1-4)GlcNAc6S,-0.42
same,glycan array binding signal (z-score),GalNAc(b1-6)GalNAc,-0.886
same,glycan array binding signal (z-score),GalNAc3S(b1-4)GlcNAc,0.631
same,glycan array binding signal (z-score),GalNAc3S(b1-4)GlcNAc3S,-0.284
same,glycan array binding signal (z-score),[13],-0.43
same,glycan array binding signal (z-score),GalNAc4S6S(b1-4)GlcNAc,-0.487
same,glycan array binding signal (z-score),GalNAc6S(b1-4)GlcNAc,-0.463
same,glycan array binding signal (z-score),Glc(a1-4)Glc,-0.061
same,glycan array binding signal (z-score),[14],-0.426
same,glycan array binding signal (z-score),Glc(a1-6)Glc(a1-6)Glc,0.839
same,glycan array binding signal (z-score),[15],0.945
